Measurements published in PubChem BioAssay AID540317 (National Center for Advancing Translational Sciences (NCATS), 2011).
Screen size: about 390,000 compounds; about 2,200 (0.56%) were called active. The shares of active, inactive and inconclusive entries below differ from those in the screen. Calls follow the shape of the dose curve; as a rule, active = well fitted inhibition curve with a large enough effect; inconclusive = small, poorly fitted or top-dose-only effect; inactive = no such curve, though single readings can be large or run the other way. Potencies beside an inconclusive call are fits to weak or partial responses and may not hold up.

Biological target: Chromobox protein homolog 1 (Homo sapiens) (UniProt P83916)
Assay: HTS for Inhibitors of HP1-beta Chromodomain Interactions with Methylated Histone Tails; also: nearly all actives have a fitted effect of over 70% in size
Conditions: AlphaScreen HP1-beta / biotin-H3K9me3 peptide binding; series mostly up to 114 µM
Procedure, shortened: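 Compound inhibition of the preformed complex between 50 nM HP1-beta and 50 nM biotinylated H3K9me3 peptide was read by AlphaScreen. Buffer was PBS pH 7.4 with 0.01% Tween-20. Incubations ran 30 min at room temperature, with 10 ug/mL donor/acceptor beads.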
Potency is read from the fitted curve at half-maximal effect; tags tell the direction and shape of the fitted curve.

UniProt P83916, sequence (P83916 whole entry, looked up): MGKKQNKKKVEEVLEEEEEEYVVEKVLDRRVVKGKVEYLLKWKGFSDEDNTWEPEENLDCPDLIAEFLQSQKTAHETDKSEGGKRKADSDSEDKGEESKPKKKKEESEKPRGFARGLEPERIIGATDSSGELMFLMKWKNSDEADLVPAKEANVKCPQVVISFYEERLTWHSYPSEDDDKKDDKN

How did the Potency turn out when `Cc1cccc(OCCn2c(CCNC(=O)C3CCCCC3)nc3ccccc32)c1` was run?
Its Potency is “inactive”.

`COc1ccc(-c2ccccc2)cc1NCc1ccc(OC)c(OC)c1` was tested. Which Potency did it give?
Its Potency is inconclusive: 22.4 µM [inhibitor, partial curve, poor fit].

How did the Potency turn out when `COc1cc(C(Nc2ccccn2)c2ccc3ccc(C)nc3c2O)cc(OC)c1O` (centres undefined) was run?
The Potency was inconclusive: 63.1 µM [inhibitor, single point].

For `Cc1cccc(C)c1C(=O)N[C@@H](Cc1ccccc1)C(=O)O`, which Potency is on record?
The Potency was “inactive”.

`CCOc1ccc(CCNC(=O)c2nc(-c3cccc(F)c3)n3c2CCCCC3)cc1OCC` was tested. Which Potency did it give?
Its Potency is inconclusive: 70.8 µM [inhibitor, partial curve, poor fit].

`COc1ccc(C2CC(c3ccccc3)=NN2C(=O)COC(=O)c2cccc(O)c2)cc1` (centres undefined) was tested. Which Potency did it give?
The Potency was inconclusive: 70.8 µM [inhibitor, partial curve, poor fit].

Which Potency does the source give for `COC(=O)c1ccccc1NC(=S)NC(=O)c1ccc(C)cc1` here?
The Potency was “inactive”.

With `CCc1cc[n+](C(C(=S)Nc2cccc(C)c2)=C([O-])c2ccc(C)c([N+](=O)[O-])c2)cc1` as the compound, how does the Potency read?
Its Potency is inconclusive: 50.1 µM [inhibitor, partial curve].

How did the Potency turn out when `COC(=O)[C@]1(Cc2ccccc2)N[C@H](CN(C)C(=O)Nc2ccc(OC)cc2)[C@@H]2C(=O)N(Cc3ccccc3)C(=O)[C@@H]21` was run?
Its Potency is “inactive”.

Which Potency does the source give for `CC(C)CCn1c(=O)c2sccc2n2c(CCCC(=O)N3CCC(N4CCCCC4)CC3)nnc12` here?
Its Potency is “inactive”.

How did the Potency turn out when `CC(=O)N1N=C(c2ccc(C)o2)CC1c1cccc(F)c1` (centres undefined) was run?
Its Potency is inconclusive: 89.1 µM [inhibitor, partial curve, poor fit].

`Cc1cnc(NC(=O)CCNC(=O)c2ccc([N+](=O)[O-])cc2)s1` was tested. Which Potency did it give?
The Potency was inconclusive: 22.4 µM [inhibitor, single point].

For `CCOc1ccc(-c2c(C)nn3c(C)c(C(=O)NCC(C)c4ccccc4)cnc23)cc1OCC` (centres undefined), which Potency is on record?
Its Potency is inconclusive: 89.1 µM [inhibitor, partial curve, poor fit].

How did the Potency turn out when `Cc1ccc(-c2cc(-c3ccccc3)nc(NN)n2)cc1` was run?
Its Potency is “inactive”.

For `Cc1ccc(OCCCCN2CCCCC2)c(Br)c1`, which Potency is on record?
The Potency was inconclusive: 79.4 µM [inhibitor, single point].

For `COc1ccc(NC2CCCN(C(=O)CCn3cccn3)C2)cc1` (centres undefined), which Potency is on record?
The Potency was “inactive”.

Which Potency does the source give for `C#CC[N+]1(CC#Cc2ccccc2)CCCCC1` here?
The Potency was “inactive”.

Which Potency does the source give for `Cc1ccc(N(Cc2ccco2)C(=O)c2ccc(N3CCCCC3)c([N+](=O)[O-])c2)cc1` here?
The Potency was inconclusive: 14.1 µM [inhibitor, full curve].

How did the Potency turn out when `CCOC(=O)c1sc2nc3c(SCC(=O)O)cc(C(=O)c4cc(F)ccc4O)cn3c(=O)c2c1C` was run?
Its Potency is inconclusive: 50.1 µM [inhibitor, partial curve].

Which Potency does the source give for `CCc1cccc(C)c1Nc1c(-c2ccc(N3CCOCC3)cc2)nc2ncccn12` here?
The Potency was inconclusive: 50.1 µM [inhibitor, partial curve].

`O=C(O)c1ccccc1NS(=O)(=O)c1ccc(NN=Cc2ccc(F)cc2)c([N+](=O)[O-])c1` was tested. Which Potency did it give?
The Potency was inconclusive: 56.2 µM [inhibitor, partial curve, poor fit].

With `CCC(=O)NC(c1cccc([N+](=O)[O-])c1)c1c(O)ccc2ccccc12` (centres undefined) as the compound, how does the Potency read?
Its Potency is “inactive”.

`Cc1ccc(C)c(SCC(=O)OCC(=O)c2ccco2)c1` was tested. Which Potency did it give?
Its Potency is inconclusive: 79.4 µM [inhibitor, partial curve].

How did the Potency turn out when `COc1ccc(Cn2c(C(=O)O)c(CNCCc3ccccc3Cl)c3ccc(C)cc32)cc1` was run?
The Potency was inconclusive: 50.1 µM [inhibitor, partial curve].

For `COc1cc(C(=S)N2CCN(C(c3ccccc3)c3ccccc3)CC2)cc(OC)c1O`, which Potency is on record?
Its Potency is inconclusive: 11.2 µM [inhibitor, full curve].

How did the Potency turn out when `Cc1cc(O)c(C(=O)c2cnc3c(c2)COc2ccccc2-3)cc1Cl` was run?
Its Potency is inconclusive: 11.2 µM [inhibitor, full curve, poor fit].

`Cc1c(Cl)c(C(F)F)nn1CC(=O)NC1C(=O)N2C(C(=O)O)=C(CSc3nnnn3C)CSC12` (centres undefined) was tested. Which Potency did it give?
Its Potency is “inactive”.

`Cc1cc(=O)[nH]c(N=N/C(=N/Nc2ccc(O)cc2)c2ccccc2)n1` was tested. Which Potency did it give?
The Potency was inconclusive: 79.4 µM [inhibitor, partial curve, poor fit].

`Cc1ccc(C)c(N2N=C(C(=O)O)CCC2=O)c1` was tested. Which Potency did it give?
The Potency was inconclusive: 39.8 µM [inhibitor, single point].

With `CCOc1cc(CN2CCN(C(=O)c3ccco3)CC2)ccc1OC` as the compound, how does the Potency read?
The Potency was inconclusive: 50.1 µM [inhibitor, partial curve, poor fit].

How did the Potency turn out when `COc1ccccc1CNc1nc(-c2ccco2)nn1S(=O)(=O)c1ccc(Cl)cc1` was run?
Its Potency is “inactive”.

`COC(=O)c1c(NC(=O)CSc2nnc(-c3ccco3)n2C)sc(C)c1C` was tested. Which Potency did it give?
Its Potency is inconclusive: 22.4 µM [inhibitor, full curve].

With `COCCn1cnc2c1c(=O)n(Cc1cc(C(C)=O)ccc1OC)c(=O)n2Cc1ccccc1` as the compound, how does the Potency read?
Its Potency is “inactive”.

With `CCOc1ccc(C(=O)NCCCCNC(=O)c2ccc(OCC)cc2)cc1` as the compound, how does the Potency read?
Its Potency is “inactive”.

How did the Potency turn out when `COc1cc(-n2c(=O)c3ccccc3n(CC(=O)c3ccc(Br)cc3)c2=O)cc(OC)c1OC` was run?
Its Potency is “inactive”.

Which Potency does the source give for `Cc1cccc(NC(=O)Cn2nc(N3CCN(c4ccccc4)CC3)ccc2=O)c1C` here?
The Potency was “inactive”.

`COCC(C)n1c(C)cc(C(=O)COc2ccc(S(=O)(=O)N3CCOCC3)cc2Cl)c1C` (centres undefined) was tested. Which Potency did it give?
The Potency was inconclusive: 17.8 µM [inhibitor, partial curve, poor fit].

With `C=CCNc1oc(/C=C/c2ccccc2)nc1C#N` as the compound, how does the Potency read?
Its Potency is “inactive”.

For `CCn1c(=S)[nH]c2scc(-c3cccs3)c2c1=O`, which Potency is on record?
Its Potency is “inactive”.

Which Potency does the source give for `COc1ccc2oc(C(=O)N3CCN(S(=O)(=O)c4cccc([N+](=O)[O-])c4)CC3)c(C)c2c1` here?
The Potency was “inactive”.

With `Cc1ccc(-c2cc(-c3ccc(C)o3)nc(N)c2C#N)cc1` as the compound, how does the Potency read?
Its Potency is inconclusive: 44.7 µM [inhibitor, partial curve].

`Cc1ccc(C(=O)N2CCN(c3ccccc3F)CC2)cc1NC(=O)c1nsc2ccccc12` was tested. Which Potency did it give?
The Potency was “inactive”.

For `C=CCC(NC(C)c1ccccc1)c1ccco1` (centres undefined), which Potency is on record?
Its Potency is inconclusive: 39.8 µM [inhibitor, partial curve].

`Cc1ccccc1C(=O)N1CCN(c2ccc([N+](=O)[O-])c(NCc3cccnc3)c2)CC1` was tested. Which Potency did it give?
The Potency was inconclusive: 28.2 µM [inhibitor, single point].
